# Reference: the supplement of paper PMC10126150
# Sequences with one replicate were seen in a single cluster, so their values are uncertain.
# Test system: ATP
# Experiment: switch fluorescence ratio, 500 uM ATP over buffer (Cy3 cluster intensity, sum of 5 cycles each) (fold (ratio)); higher = stronger signal-on switching upon ATP binding; sequences stand for … in TCGTCGGCAGCGTCAGATGTGTATAAGAGACAGTTTTTTTTTTTTTTTTTTTTTTTTT…TC
# Settings: aptamer strand: ATP DNA aptamer (quencher-CACCTGGGGGAGTATTGCGGAGGAAGG + anchor), 100 nM annealed; ATP concentration: 500 uM; one replicate
# In short: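 For every switch-domain sequence, the fluorescence ratio is the mean of per-cluster values, each being summed target-cycle Cy3 intensity over summed buffer-cycle Cy3 intensity. Clusters outside 100-1000 RFU were excluded. On a modified Illumina MiSeq flow-cell, the Cy3-labelled switching-strand clusters were annealed to 100 nM quencher-labelled ATP aptamer, imaged in selection buffer and then after 15 min with 500 uM ATP at 22 °C. Five such cycles were run, with NaOH stripping and re-annealing between them.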
# 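Note: ATP exposure 15 min at 22 °C before imaging.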
row,Sequence,switch fluorescence ratio
1,ATGTGAATGG,0.967
2,ATGTGACTCA,0.954
3,ATGTGATACT,1.07
4,ATGTGCACTT,1.01
5,ATGTGCCTAG,1.01
6,ATGTGCGCCA,1.04
7,ATGTGGCCT,0.936
8,ATGTGTAGAT,1.03
9,ATGTGTATCA,0.975
10,ATGTGTTTTC,0.996
11,ATGTTAAACT,1.06
12,ATGTTAATGT,1.01
13,ATGTTACTCA,0.992
14,ATGTTAGTTT,0.996
15,ATGTTATGGG,1.01
16,ATGTTATTTC,0.925
17,ATGTTCCACT,0.995
18,ATGTTGCCGG,1.04
19,ATGTTTCAGC,1.01
20,ATGTTTTTAA,1.01
21,ATTAACAGCG,1.03
22,ATTAACGAAG,0.988
23,ATTAACGCGG,1
24,ATTAACGGGG,1
25,ATTAATACGA,1.03

row,Sequence,switch fluorescence ratio
1,ATTAATATAA,0.976
2,ATTAATCTCT,1.03
3,ATTAATGTAT,0.973
4,ATTAATGTGG,0.979
5,ATTACAATGG,0.992
6,ATTACACACA,1.14
7,ATTACAGCTT,0.978
8,ATTACCTTAG,1.06
9,ATTACGAGGC,1.08
10,ATTAGAAGTG,0.986
11,ATTAGCAAAA,1.06
12,ATTAGCAGGG,0.99
13,ATTAGGAGTG,0.956
14,ATTAGGGTAC,1.01
15,ATTATAAGCT,1.01
16,ATTATACGC,1
17,ATTATAGGGC,1.02
18,ATTATCAGC,1.03
19,ATTATCGGTG,0.963
20,ATTATCTGAT,1.01
21,ATTATGCTCG,1.08
22,ATTATGGCCT,1.03
23,ATTATGTCGG,1.02
24,ATTATTAAGA,0.978
25,ATTATTATA,0.999

row,Sequence,switch fluorescence ratio
1,ATTATTGACG,1.01
2,ATTATTTATT,0.963
3,ATTATTTCTT,1.01
4,ATTATTTGCT,0.928
5,ATTCAAGACT,1.05
6,ATTCAAGCGA,1.05
7,ATTCAAGGCA,0.985
8,ATTCAGGCGA,0.96
9,ATTCATGGCG,1
10,ATTCCAACCC,1.02
11,ATTCCAAGGG,1.04
12,ATTCCACGGG,1.2
13,ATTCCATTCG,1.14
14,ATTCCGATTT,1.05
15,ATTCCGGA,0.976
16,ATTCCTTAAA,0.99
17,ATTCGACGAC,1.16
18,ATTCGCGACG,1.02
19,ATTCGCTGTT,1.03
20,ATTCGGATAA,0.957
21,ATTCGGCTGT,0.991
22,ATTCGGGATT,1
23,ATTCGGGCGG,0.958
24,ATTCGGGGCC,1.05
25,ATTCGTCAGA,0.984

row,Sequence,switch fluorescence ratio
1,ATTCTAATCG,0.971
2,ATTCTATTGG,1
3,ATTCTCTTG,0.99
4,ATTCTGACTG,1
5,ATTCTGATTC,0.976
6,ATTCTGCTTT,1.02
7,ATTCTTATGC,1.05
8,ATTCTTGCCA,0.976
9,ATTCTTGTGC,0.925
10,ATTCTTTAA,0.973
11,ATTCTTTATT,1.07
12,ATTGAAAAGT,1.02
13,ATTGAAATTA,1.04
14,ATTGAATCAC,1.01
15,ATTGACAGAT,1.01
16,ATTGACTAGC,1.02
17,ATTGACTGTT,1.02
18,ATTGACTTGA,0.985
19,ATTGAGAGCC,1.04
20,ATTGAGCGT,0.978
21,ATTGATGAAG,1.03
22,ATTGATGAAT,0.962
23,ATTGCAGAGT,0.953
24,ATTGCCCAGA,0.995
25,ATTGCCCTAG,1.07
